Test results from publication PMC4336329 (PLoS ONE, 2015).
The campaign covered roughly 310,000 compounds. About 14,000 (4.5%) showed an effect of 50% or more. The effect is printed as a negative number. Some of the results follow.
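Also: peak tail current of the secondary pulse compared with the same well before compound.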

The compounds below were run against human ether-à-go-go-related gene (hERG) potassium channel (human, UniProt Q12809) (assay: primary screen, population patch clamp on CHO cells stably expressing hERG).
human ether-à-go-go-related gene (hERG) potassium channel, sequence (Q12809 whole entry, looked up): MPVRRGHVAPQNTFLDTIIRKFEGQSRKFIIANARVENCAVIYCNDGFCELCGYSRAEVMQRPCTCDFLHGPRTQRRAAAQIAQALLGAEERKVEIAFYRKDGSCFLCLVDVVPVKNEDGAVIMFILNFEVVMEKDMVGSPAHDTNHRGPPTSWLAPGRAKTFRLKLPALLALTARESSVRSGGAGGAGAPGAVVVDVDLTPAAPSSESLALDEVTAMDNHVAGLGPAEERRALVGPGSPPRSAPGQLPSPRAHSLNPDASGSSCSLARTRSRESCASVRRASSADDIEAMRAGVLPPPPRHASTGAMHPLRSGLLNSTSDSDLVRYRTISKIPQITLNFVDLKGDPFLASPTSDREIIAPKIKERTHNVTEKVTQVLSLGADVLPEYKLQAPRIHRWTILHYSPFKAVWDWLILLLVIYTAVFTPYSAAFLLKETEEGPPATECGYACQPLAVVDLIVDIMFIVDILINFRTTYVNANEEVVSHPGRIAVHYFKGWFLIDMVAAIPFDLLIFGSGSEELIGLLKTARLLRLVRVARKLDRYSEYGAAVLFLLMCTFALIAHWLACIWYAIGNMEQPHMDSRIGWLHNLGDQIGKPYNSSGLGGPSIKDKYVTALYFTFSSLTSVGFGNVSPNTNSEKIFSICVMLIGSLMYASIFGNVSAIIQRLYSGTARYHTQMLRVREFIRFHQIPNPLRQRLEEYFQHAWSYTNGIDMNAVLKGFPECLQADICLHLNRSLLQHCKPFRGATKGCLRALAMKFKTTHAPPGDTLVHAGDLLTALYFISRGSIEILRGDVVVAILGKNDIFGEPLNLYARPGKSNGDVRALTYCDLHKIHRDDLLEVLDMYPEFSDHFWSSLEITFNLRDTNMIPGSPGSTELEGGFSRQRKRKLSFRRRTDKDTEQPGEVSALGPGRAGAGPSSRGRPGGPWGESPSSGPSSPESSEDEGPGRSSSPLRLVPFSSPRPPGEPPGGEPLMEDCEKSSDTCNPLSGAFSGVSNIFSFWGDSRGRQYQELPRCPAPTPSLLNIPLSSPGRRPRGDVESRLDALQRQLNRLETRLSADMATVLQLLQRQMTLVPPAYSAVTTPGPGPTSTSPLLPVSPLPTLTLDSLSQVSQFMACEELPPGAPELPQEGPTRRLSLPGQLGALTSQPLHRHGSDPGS
In the case of `CCOCC(=O)N1CCc2ccccc21`, the “hERG current change (%, negative = inhibition) at 10uM” value is reported as 4%.
For `O=C(Nc1cccc(C(F)(F)F)c1)Nc1ccon1`, the “hERG current change (%, negative = inhibition) at 10uM” value was 10.9%.
`COc1ccc(-c2csc3ncnc(N4CCN(c5ccc(OC)cc5)CC4)c23)cc1` was tested, and the “hERG current change (%, negative = inhibition) at 10uM” value was -11.2%.
For `Cc1ccccc1OC(=O)c1cccc(S(=O)(=O)N2CCN(C)CC2)c1`, the “hERG current change (%, negative = inhibition) at 10uM” value was -30.1%.
In the case of `O=C(c1cc(-c2ccccc2)on1)N1CCC2(CC1)OCCO2`, the “hERG current change (%, negative = inhibition) at 10uM” value is reported as 1.93%.
`COc1ccc2c(c1)OC[C@H]1[C@H]2N2C(=O)c3cc(OC)ccc3NC(=O)[C@@]2(C)[C@H]1c1ccccc1` was tested, and the “hERG current change (%, negative = inhibition) at 10uM” value was 1.82%.
For `O=[N+]([O-])c1ccc(C[n+]2cccc3ccc4cccnc4c32)cc1.[Br-]`, the “hERG current change (%, negative = inhibition) at 10uM” value was -62.6%.
For `COc1cc2c(cc1NC(=O)CN(C)Cc1ccc(OC)c(OC)c1)oc1ccccc12`, the “hERG current change (%, negative = inhibition) at 10uM” value was 14.3%.
For `O=C(c1cc(F)ccc1F)C1CCCN(Cc2cc(Cl)ccc2O)C1` (centres unmarked), the “hERG current change (%, negative = inhibition) at 10uM” value was 0.916%.
`O=C(O)c1cccc(CSc2nc(-c3ccccc3)cc(C(F)(F)F)n2)c1` was tested, and the “hERG current change (%, negative = inhibition) at 10uM” value was 0.347%.
`Cc1ccc(C)c(NC(=O)CCC(=O)N2CCOc3ccccc32)c1` was tested, and the “hERG current change (%, negative = inhibition) at 10uM” value was -8.87%.
In the case of `CCSCC1COC(c2cccn2Cc2ccc(C)cc2)=N1` (centres unmarked), the “hERG current change (%, negative = inhibition) at 10uM” value is reported as -3.14%.
`Cc1c(NC(=O)c2ccc(S(=O)(=O)N(C)C)cc2)cccc1-n1cnnn1` was tested, and the “hERG current change (%, negative = inhibition) at 10uM” value was 8.65%.
For `CC(=O)Nc1ccc(S(=O)(=O)NCCC(=O)OCc2ccccc2F)cc1`, the “hERG current change (%, negative = inhibition) at 10uM” value was -8.68%.
With `CCOC(=O)c1sc2ccc(S(=O)(=O)N3CCOCC3)cc2c1N` the “hERG current change (%, negative = inhibition) at 10uM” value was 1.25%.
With `Cc1c(C(=O)N2CCN(c3ncccn3)CC2)oc2ccc(Cl)cc12` the “hERG current change (%, negative = inhibition) at 10uM” value was -23.3%.
With `Cc1ccc(S(=O)(=O)Cn2nnnc2CN(Cc2ccco2)CC2CCCO2)cc1` (centres unmarked) the “hERG current change (%, negative = inhibition) at 10uM” value was -8.15%.
For `CN1C(=O)N(c2cccc3ccccc23)C(n2cncn2)C1(C)C` (centres unmarked), the “hERG current change (%, negative = inhibition) at 10uM” value was 14.1%.
With `CC(C)c1nnc(NC(=O)C2CCN(c3nc4ccccc4s3)CC2)s1` the “hERG current change (%, negative = inhibition) at 10uM” value was 9.04%.
With `COC(=O)c1ccc(CN2C(=O)NC3(CCC(C)CC3)C2=O)cc1` (centres unmarked) the “hERG current change (%, negative = inhibition) at 10uM” value was 25.6%.
For `Cc1cccc(NC(=S)N2CCC(NC(=O)c3cccc(F)c3)CC2)c1`, the “hERG current change (%, negative = inhibition) at 10uM” value was -11.8%.
`COc1ccc(Cl)cc1N(C(=O)c1ccco1)C(C(=O)NC1CCCC1)c1ccncc1` (centres unmarked) was tested, and the “hERG current change (%, negative = inhibition) at 10uM” value was -4.73%.
With `O=C(NCc1cccs1)c1nc2c(nnn2Cc2ccccc2Cl)c(=O)[nH]1` the “hERG current change (%, negative = inhibition) at 10uM” value was 5.42%.
